Experimental data published in PubChem BioAssay AID1508642 (National Center for Advancing Translational Sciences (NCATS), 2021).
The whole screen tested about 43,000 compounds, of which about 200 (0.47%) were called active. Another 12% or so got no clear call; they are omitted. Calls follow the shape of the dose curve; as a rule, active = well fitted cell-killing curve with a large enough effect; inconclusive = small, poorly fitted or top-dose-only effect, or effect the other way; inactive = flat fitted curve, though single readings scatter. The list shows a part of the results.

Assay: Cell viability qHTS assay in S16 Pmp22-F2sN cells; also: nearly all actives have a fitted effect of over 65% in size
Settings: S16 Pmp22-F2sN Schwann cells (luciferase reporters placed in the Pmp22 gene) viability, CellTiter-Glo, 24 h; series mostly up to 57.5 µM; activity change, negative = cytotoxicity: at the top concentration
In short: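 CellTiter-Glo counter-screen, qHTS, 1536-well. Cells: S16(c9) Pmp22-F2sN, 500-1,000/well in DMEM + 10% FBS. Cpd 23 nL pin transfer, 24 h, 37C/5% CO2. Read: luminescence, CCD imager.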
% is scaled to controls: 0 for no effect and ±100 for the full control effect.

SMILES	activity change, negative = cytotoxicity
Cc1c(-c2nc(-c3ccc4c(c3)OCO4)no2)nnn1-c1ccc(C(C)C)cc1	inactive: 0.103%
Cc1cccc(NC(=O)C(Cc2ccccc2)NS(=O)(=O)c2ccc3c(c2)c(=O)n(C)c(=O)n3C)c1 (stereo unspecified)	inactive: 9.63%
Cc1ccc(NC(=O)N2CCN(c3cc(-c4noc(C)n4)ccc3C)CC2)c(F)c1	inactive: -17.7%
CCC(=O)Oc1ccc(C2Nc3ccccc3-c3nnc(SC)nc3O2)cc1 (stereo unspecified)	inactive: -5.4%
Cc1ccc2cccc(NC(=O)C(C)Oc3ccc(Cl)cc3Cl)c2n1 (stereo unspecified)	inactive: 0.673%
CCOc1ccc(C(c2c(O)cc(C)n(Cc3ccco3)c2=O)N2CCCCC2)cc1 (stereo unspecified)	inactive: 0.312%
COc1cccc(CNS(=O)(=O)c2ccc3c(c2)C(C(C)C)C(=O)N3)c1 (stereo unspecified)	inactive: -24.8%
Cc1ccc(NC(=O)CC2Sc3ccc(C(F)(F)F)cc3NC2=O)cc1 (stereo unspecified)	inactive: -16.9%
Cc1cc(-c2ccccc2)n2nc(-c3ccccc3)cc2n1	inactive: 4.17%
Cc1c(C(=O)O)oc2c1-c1nn(Cc3ccc(Cl)cc3)cc1CC2	inactive: -6.22%
CN(C)CCNC(=O)C(=O)NCC(c1ccc2c(c1)OCO2)N1CCOCC1 (stereo unspecified)	inactive: 2.45%
Cc1ccc(OCCSc2nc(C)c(Cc3ccccc3)c(=O)[nH]2)cc1	inactive: 12.4%
Cc1cc(C)c(NC(=O)CSc2nncn3c2cc2oc(C)cc23)c(C)c1	inactive: 1.66%
COc1ccc(CNC(=O)Nc2cn(CC(C)C)c(=O)c3ccccc23)cc1	inactive: -9.29%
CC(=O)c1ccc(NC(=O)CN(C)S(=O)(=O)c2cnc[nH]2)cc1	inactive: -0.845%
Cc1cc(Cl)ccc1OCC(=O)N1CCC(c2nc3ccccc3s2)CC1	inactive: 8.18%
Nc1c(C(=O)Nc2cccc(F)c2)c2ccccn2c1C(=O)c1ccccc1	inactive: 19.3%
Cc1cccc(C(=O)Nc2ccc3nc(SCCOc4ccccc4)sc3c2)c1	inactive: 18.7%
COc1ccc(CCNc2nc(SCc3ccc(Cl)cc3)nc3ccccc23)cc1OC	inactive: -11.2%
Nc1ncc(S(=O)(=O)Nc2ccc(F)cc2F)cn1	inactive: 0.189%
CCc1cnc2c(c1SCC(=O)NCc1ccc(F)cc1)c(=O)n(C)c(=O)n2C	inactive: -3.78%

SMILES	activity change, negative = cytotoxicity
COc1ccc(C2C=C(c3ccccc3)Nc3nc(NC(=O)/C=C/c4ccccc4Cl)nn32)cc1 (stereo unspecified)	inactive: -0.513%
COc1ccc(NC(=O)CN2C(=O)COc3ccc(S(=O)(=O)N4CCCCC4)cc32)cc1OC	inactive: 8.58%
Cc1cc(C)c2c(c1)c(C)cc1nnc(SCC(=O)c3ccc(F)cc3)n12	inactive: -2.22%
COC(=O)c1ccccc1NC(=O)Cn1c(=O)cc(C)c2c(C)nn(C)c21	inactive: -27.8%
Cc1ccc(C)c(Cn2c(C(=O)O)c(CNCc3cccs3)c3ccccc32)c1	inactive: 8.89%
COc1ccc(N2CCN(C(c3ccccc3F)c3sc4nc(-c5ccco5)nn4c3O)CC2)cc1 (stereo unspecified)	inactive: 5.1%
CCOC(=O)c1c(NC(=O)COc2cccc(C)c2C)sc(C(C)=O)c1C	inactive: 6.78%
COc1ccc(Cl)cc1NC(=O)Cn1c(=O)c(-c2ccccc2NC(C)=O)nc2ccccc21	inactive: 1.58%
COc1ccc(OC)c(CNS(=O)(=O)c2ccc(-c3coc(C)n3)cc2)c1	inactive: -6.53%
CC(=O)c1cc(-c2ccccc2)n(CC(=O)Nc2ccc(C)c(C)c2)c1C	inactive: -21.5%
COc1ccccc1-c1noc(-c2ccc(NC3CCCC3)c([N+](=O)[O-])c2)n1	inactive: -7.85%
Cc1cc2nc(-c3ccc(NC(=O)c4ccccc4F)cc3)oc2cc1C	inactive: -1.57%
CCOc1ccc(CNC(=O)CS(=O)(=O)c2cccc3nsnc23)cc1	inactive: -0.653%
COc1ccccc1-c1nc(SCC(=O)NCc2ccccc2)c2c(=O)n(C)c(=O)n(C)c2n1	inactive: 5.36%
COCCNC(=O)c1ccc2nc(Cc3ccccc3)oc2c1	inactive: -1.33%
CC(C)N(CCCNC(=O)Cn1ncc2c([nH]c3ccccc32)c1=O)Cc1ccccc1	inactive: 7.88%
Cc1ccc(Nc2nnc(-c3ccc(C)c(S(=O)(=O)N4CCOCC4)c3)c3ccccc23)cc1	inactive: 3.97%
Cc1cc(C)c2c(=O)cc(C(=O)Nc3sc4c(c3C(=O)NCC3CCCO3)CCCC4)oc2c1 (stereo unspecified)	inactive: 8.72%
COc1ccc(C)cc1NC(=O)CC1NCCNC1=O (stereo unspecified)	inactive: -20.5%
CC(=O)c1ccc(N2CCN(c3ccc4cc(S(=O)(=O)N5CCCCC5)ccc4n3)CC2)cc1	inactive: 12.6%
CCOC(=O)c1ccc(NC(=O)CSc2nc3ccccc3c(=O)n2CCC(=O)NC2CCCCC2)cc1	inactive: 6.82%

SMILES	activity change, negative = cytotoxicity
COc1ccc(-c2nc(CS(=O)(=O)CC(=O)NCCc3ccc(C)cc3)c(C)o2)cc1	inactive: -1.22%
CCC(=O)C1=C(c2ccc(OC)c(OC)c2)N(C(=O)CC)n2c(nnc2-c2ccc(C)cc2)S1	inactive: 0.721%
CCCOc1ccc(C2c3c(-c4c(C)cc(C)cc4O)n[nH]c3C(=O)N2CCO)cc1 (stereo unspecified)	inactive: 2.51%
Cc1ccc(Cl)cc1NC(=O)c1sc(-n2nc(C)c(Cc3ccc4c(c3)OCO4)c2C)nc1C	inactive: -4.01%
CCOc1ccc(-c2cc3nc(C4CCN(C(=O)OC(C)(C)C)CC4)c(C(=O)Nc4cc(OC)ccc4OC)cn3n2)cc1	inactive: -4.12%
Cc1nn(C)c2c1c(-c1ccccc1)cc(=O)n2CC(=O)NC(C)c1ccccc1 (stereo unspecified)	inactive: -17.8%
Cc1ccc(Cl)cc1NC(=O)Nc1cccc(OCc2cc(=O)n3ccccc3n2)c1	inactive: 13.6%
COc1ccc(-n2c(-c3ccco3)nc3c(cnn3-c3ccccc3Cl)c2=O)cc1	inactive: 9.42%
CCCCCn1c(CN2CCN(c3ccc(OC)cc3)CC2)nc2c1c(=O)[nH]c(=O)n2C	inactive: -12.4%
O=C(Cn1c(=O)n(-c2ccccc2)c(=O)c2c3c(sc21)CCCC3)Nc1ccc(F)cc1F	inactive: 5.89%
COc1cccc(CNC(=O)c2cccc(-n3c(C)nc4cccnc43)c2)c1OC	inactive: -0.343%
Cc1cc(=O)n(Cc2ccc(Cl)cc2)c2c1c(C)nn2-c1ccccc1	inactive: 6.51%
COc1ccc(OC)c(S(=O)(=O)NCCS(=O)(=O)N2CCN(c3ccccc3)CC2)c1	inactive: 6.37%
O=C(CSc1cn(CC(=O)N2CCCCC2)c2ccccc12)Nc1ccccc1	inactive: 1.11%
COc1ccc(OC)c(C2=NS(=O)(=O)N(C)C(C(=O)Nc3ccc(F)cc3F)=C2)c1	inactive: -15.7%
Cc1ccc(C)c(NC(=O)C2CCCN(c3ncnc4onc(C)c34)C2)c1 (stereo unspecified)	inactive: -3.34%
Cc1nc(-c2ccccc2)sc1-c1ccc(SCC(=O)NCc2ccccc2Cl)nn1	inactive: -0.433%
O=C(NCc1noc2ccccc12)N1CCN(c2ccccc2)CC1	inactive: -1.84%
O=C(NCC(c1ccco1)S(=O)(=O)c1cccs1)c1ccc(F)c(F)c1 (stereo unspecified)	inactive: -27.2%
